Here are results for 65 compounds from the supplement of paper PMC9446081.

In all, about 39,000 compounds went through this assay and about 220 (0.56%) showed activity. The list shows a part of the results.
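Note: static incubation at 37 °C against the wild-type strain, values averaged over two biological replicates.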

The subject of the experiment is Escherichia coli K-12 BW25113. The experiment can be described thus: relative growth (OD600 normalised to plate interquartile mean) (fraction); higher = less growth inhibition, active = 0.2 or less. The following applies: 50 µM; LB; incubation time: overnight (16-24 h).
As to `C=CCSC1=N[C@@]2(COCc3ccc(OC)cc3)Oc3ccccc3[C@H]([C@H]2CO[Si](C)(C)C(C)(C)C)N1C(=O)c1ccccc1`, the relative growth is inactive: 0.991. The same measure for `C[C@H]1CN([C@@H](C)CO)C(=O)Cc2cc(NS(=O)(=O)c3cn(C)cn3)ccc2O[C@H]1CN(C)C`: inactive: 1.01; for `Cn1cc(S(=O)(=O)N2CCN(Cc3ccccc3)CC2)c(=O)n(C)c1=O`: inactive: 0.996. The result for `C[C@H](C(=O)N(C)C[C@@H]1OCc2ccccc2-c2c(n(C)c3ccccc23)C(=O)N([C@H](C)CO)C[C@H]1C)c1ccccc1` reads inactive: 0.982. The same measure for `C[C@@H]1CN([C@@H](C)CO)C(=O)c2cccc(NC(=O)Nc3ccc(C(F)(F)F)cc3)c2O[C@@H]1CN(C)Cc1ccc(Oc2ccccc2)cc1`: inactive: 1.02. With `O=C1N[C@@H](CC(=O)N2CCN(CCc3ccncc3)CC2)C(=O)Nc2ccccc21`, the relative growth is inactive: 0.988.

As to `C[C@H]1CN([C@@H](C)CO)C(=O)c2cccc(NS(C)(=O)=O)c2O[C@@H]1CN(C)C(=O)NC1CCCCC1`, the relative growth is inactive: 0.975. The same measure for `COc1nn(C)cc1-c1n[nH]c(=S)n1C`: inactive: 0.979; for `C[C@@H]1CN([C@H](C)CO)C(=O)c2cc(NC(=O)C3CCCCC3)ccc2O[C@@H](C)CCCCO[C@H]1CN(C)Cc1ccncc1`: inactive: 1.01; for `O=C(O)[C@H]1CCCCN1`: inactive: 1.01. Consider `COc1ccc2c3c(n(c2c1)C)[C@@H](CO)N(Cc1ccccc1)C[C@]13CCN(CC1)C(=O)Nc1cccc(c1)F`, for which the relative growth is inactive: 1.01. The result for `C=CC[C@@H](CC(=O)NCCO)C(=O)N[C@H](COC(=O)[C@H](CC=C)CC(=O)OC(C)(C)C)Cc1c[nH]c2ccccc12` reads inactive: 1; that for `C=c1ccc(S(=O)(=O)N2CCCC2)cc1=C1NN=C2c3ccccc3C(C)=NN21`, inactive: 1.02. The result for `O=C(C[C@H]1C[C@H]2c3cc(NC(=O)Nc4ccccc4)ccc3O[C@H]2[C@H](CO)O1)NCCN1CCCCC1` reads inactive: 0.994; that for `C[C@@H]1CN([C@H](C)CO)C(=O)c2cc(NC(=O)c3ccncc3)ccc2O[C@@H]1CN(C)Cc1ccncc1`, inactive: 1.02; that for `C[C@H]1CN([C@@H](C)CO)C(=O)c2cccc(NS(=O)(=O)c3cccs3)c2O[C@H]1CN(C)Cc1ccncc1`, inactive: 0.978.

On to `CO[C@@H]1CN(C)C(=O)c2cc(NC(=O)CC(F)(F)F)ccc2OC[C@H](C)N(S(=O)(=O)c2cn(C)cn2)C[C@@H]1C`, for which the relative growth was inactive: 0.997. `C[C@@H]1CN([C@@H](C)CO)C(=O)Cc2cc(NC(=O)Cn3cnnn3)ccc2O[C@H]1CN(C)S(=O)(=O)c1ccccc1`: the relative growth is inactive: 0.993. In the case of `CO[C@@H]1CN(C)C(=O)c2ccc(NC(=O)CN(C)C)cc2OC[C@@H](C)N(C(=O)C2CCCCC2)C[C@H]1C`, the relative growth is inactive: 0.983.

With `C[C@H](CO)N1C[C@H](C)[C@@H](CN(C)S(=O)(=O)c2ccc(-n3cccn3)cc2)OCc2cn(nn2)CCCC1=O`, the relative growth is inactive: 1.05. The result for `CCNc1ncnc2c1nnn2C` reads inactive: 1.02; that for `C[C@H](CO)N1C[C@H](C)[C@@H](CN(C)Cc2ccc3c(c2)OCO3)Oc2cc(Br)ccc2S1(=O)=O`, inactive: 0.929; that for `CC(O)(CC(=O)O)CC(=O)O`, inactive: 0.855.

Turning to `NC(=O)c1ncn(C2OC(CO)C(O)C2O)c1N` (stereo not given), the relative growth is inactive: 1.04. For the compound `COc1ccc(NC(=O)N2C[C@@H](O)COC[C@H]3O[C@@H](CC(=O)NC4Cc5ccccc5C4)CC[C@@H]32)cc1`, the relative growth is inactive: 1.02.

Take `C[C@@H]1CCCCO[C@H](CN(C)S(C)(=O)=O)[C@@H](C)CN([C@@H](C)CO)C(=O)c2cc(N(C)C)ccc2O1`: the relative growth was inactive: 0.984. The same measure for `C[C@@H]1CN([C@H](C)CO)S(=O)(=O)c2ccc(C3=CCCCC3)cc2O[C@@H]1CN(C)C(=O)C1CCOCC1`: inactive: 1.02; for `NC(=O)c1ccccc1NC(=O)CCC(=O)O`: inactive: 1.01; for `C[C@@H]1CCCCO[C@@H](CN(C)S(C)(=O)=O)[C@H](C)CN([C@H](C)CO)C(=O)c2cc(N(C)C)ccc2O1`: inactive: 1. The result for `C[C@H]1CN([C@@H](C)CO)C(=O)Cc2cc(NC(=O)C3CCCCC3)ccc2O[C@@H]1CN(C)C(=O)Nc1ccc(C(F)(F)F)cc1` reads inactive: 0.982. The same measure for `C[C@H]1CN([C@@H](C)CO)C(=O)Cc2cc(NC(=O)Cn3cnnn3)ccc2O[C@@H]1CN(C)C(=O)Nc1ccc(F)cc1`: inactive: 1.03. Turning to `CO[C@H]1CN(C)C(=O)c2cc(NS(=O)(=O)CC(F)(F)F)ccc2OC[C@@H](C)N(Cc2nccs2)C[C@@H]1C`, the relative growth was inactive: 0.962. The result for `C(=C\c1ccccc1)/CSc1ncnc2c1oc1ccccc12` reads inactive: 1.02.

In the case of `O=C(CCCCCCC(=O)N/N=C/[C@H](O)[C@@H](O)[C@H](O)[C@H](O)CO)NO`, the relative growth is inactive: 1.01.

On to `NNC(=O)c1ccncc1.Nc1ccc(C(=O)O)c(O)c1`, for which the relative growth was inactive: 0.943.

Turning to `C[C@@H]1CCCCO[C@H](CN(C)C(=O)Nc2ccc(C(F)(F)F)cc2)[C@@H](C)CN([C@@H](C)CO)C(=O)c2cc(NC(=O)Cc3ccccc3)ccc2O1`, the relative growth was inactive: 0.98.

`C[C@@H]1CN([C@H](C)CO)C(=O)c2cccc(NS(=O)(=O)c3ccc(Cl)cc3)c2O[C@@H]1CN(C)Cc1ccc(Oc2ccccc2)cc1`: the relative growth is inactive: 1.03.

Regarding `O=C(c1ccncc1)N1C[C@@H]2[C@H](c3ccccc31)[C@@H](CO)N2C(=O)CN1CCOCC1`, the relative growth is inactive: 1.05. For the compound `Cc1ccc(S(=O)(=O)Nc2ccc3c(c2)C(=O)N([C@@H](C)CO)C[C@H](C)[C@H](CN(C)C(=O)CCC(F)(F)F)OCCCC[C@@H](C)O3)cc1`, the relative growth is inactive: 0.977. The result for `CN(C)C(=O)CN1C[C@@H]2CCN(C(=O)NCc3ccccc3)CC[C@H]2S1(=O)=O` reads inactive: 0.997.

`Cc1ccc(S(=O)(=O)Nc2ccc3c(c2)C(=O)N([C@@H](C)CO)C[C@@H](C)[C@@H](CN(C)C(=O)Cc2ccccc2)OCCCC[C@H](C)O3)cc1`: the relative growth is inactive: 1.04. The result for `CC(C)NC(=O)Nc1ccc2c(c1)C(=O)N([C@H](C)CO)C[C@H](C)[C@H](CN(C)Cc1ccc(Cl)c(Cl)c1)OCCCC[C@@H](C)O2` reads inactive: 0.947. The same measure for `COc1cccc(NC(=O)N2C[C@@H](O)COC[C@@H]3O[C@H](CC(=O)NCCCN4CCOCC4)CC[C@H]32)c1`: inactive: 0.996. Consider `C[C@@H]1CN([C@H](C)CO)C(=O)c2cccc(NC(=O)Nc3ccc4c(c3)OCO4)c2O[C@@H]1CN(C)C(=O)Nc1cccc2ccccc12`, for which the relative growth is inactive: 1.01. The same measure for `COc1ccc(NC(=O)N(C)C[C@@H]2OCCCC[C@@H](C)Oc3ccc(NC(=O)C4CCCCC4)cc3C(=O)N([C@@H](C)CO)C[C@@H]2C)cc1`: inactive: 0.984.

For the compound `CNC[C@H]1OCCCC[C@H](C)Oc2ccc(NC(=O)CCCN(C)C)cc2C(=O)N([C@H](C)CO)C[C@@H]1C`, the relative growth was inactive: 1.05. The result for `Cn1cnc(S(=O)(=O)N2C[C@@H](O)COC[C@H]3O[C@H](CC(=O)NCc4cc(F)cc(F)c4)CC[C@@H]32)c1` reads inactive: 0.992; that for `C[C@H](CO)N1C[C@H](C)[C@H](CN(C)S(=O)(=O)c2cn(C)cn2)Oc2ccc(NC(=O)Nc3ccccc3)cc2CC1=O`, inactive: 1.02; that for `CNCCCC1c2ccccc2C=Cc2ccccc21.Cl`, inactive: 1.1. The result for `C[C@H]1CCCCO[C@H](CN(C)S(=O)(=O)c2ccc(F)cc2)[C@@H](C)CN([C@@H](C)CO)C(=O)c2cc(NS(C)(=O)=O)ccc2O1` reads inactive: 1.02; that for `C[C@H]1CN([C@@H](C)CO)S(=O)(=O)c2ccc(C#Cc3ccccn3)cc2O[C@H]1CN(C)Cc1ccccc1`, inactive: 1.01. Consider `C[C@@H]1CN([C@@H](C)CO)C(=O)c2cccc(NS(C)(=O)=O)c2O[C@H]1CN(C)C(=O)Nc1ccc(F)cc1`, for which the relative growth was inactive: 0.996. The result for `COc1ccc(NC(=O)N(C)C[C@H]2Oc3ncc(C#C[C@H](C)O)cc3C(=O)N([C@@H](C)CO)C[C@H]2C)cc1` reads inactive: 0.972.

Regarding `C[C@H](CO)N1C[C@H](C)[C@@H](CN(C)Cc2ccc(C(=O)Nc3ccccc3N)cc2)Oc2c(NS(C)(=O)=O)cccc2C1=O`, the relative growth is inactive: 0.991. The same measure for `Cc1sc(C)c(CNc2ccccc2)c1CNc1ccccc1`: inactive: 1.01; for `O=C(C[C@@H]1CC[C@H]2[C@@H](COC[C@@H](O)CN2C(=O)C2CC2)O1)NCc1ccncc1`: inactive: 1.01; for `O=C(N1CCOCC1)[C@]1(CCS(=O)(=O)c2ccccc2)N=C(c2ccc(OCCCO)cc2)O[C@@H]1c1ccccc1`: inactive: 1.02. The result for `COc1ccc(COC[C@]23NC(=O)N[C@H](c4ccccc4O2)[C@H]3COC(=O)NCCCCCC(=O)NO)cc1` reads inactive: 1.01; that for `C[C@@H]1CN([C@H](C)CO)C(=O)c2cc(NC(=O)Cn3cnnn3)ccc2O[C@@H]1CN(C)Cc1ccc(C(=O)O)cc1`, inactive: 0.985; that for `C[C@@H]1CN([C@H](C)CO)C(=O)CCCn2nncc2CO[C@H]1CN(C)C(=O)Nc1cccc2ccccc12`, inactive: 0.983. As for `O=C(O)c1nn(Cc2ccccc2)nc1C(=O)O`, the relative growth was inactive: 1.

Turning to `C[C@@H]1CCCCO[C@@H](CN(C)Cc2ccc(C(=O)O)cc2)[C@@H](C)CN([C@H](C)CO)C(=O)c2cc(NC(=O)Cc3ccccc3)ccc2O1`, the relative growth is inactive: 0.979. As for `CC(=O)NCCCC[C@@H]1NC(=O)[C@H]2C[C@@H](C(=O)NCCCCCN)[C@@H](c3cccc(OCCO)c3)N2C1=O`, the relative growth is inactive: 1.01. The same measure for `O=c1nc[nH]c2ccccc12`: inactive: 1.01; for `CCO[C@@H]1OC(C(=O)N2CCN(Cc3ccccc3)CC2)=C[C@H](c2ccc(Br)cc2)[C@H]1CCCOC(=O)NCCCCCC(=O)NO`: inactive: 0.998.
